Read counts are not given, so values of variants with three or more changes are uncertain.
B1: CPEB3 Ribozyme (parent)
chain: UAACAGGGGGCCACAGCAGAAGCGUUCACGUCGCAGCCCCUGUCAGAUUCUGGUGAAUCUGCGAAUUCUGCUGUAUAUCUC

Variants of: B1
Assay: self-cleavage, relative activity (ratio to wild type); higher = more cleavage; in vitro, sequencing
How it was run: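 After error-prone PCR and barcoding, CPEB3 ribozyme mutant libraries were transcribed with T7 RNA polymerase at 37°C for 5 hours, then given 15 min with DNase I before an EDTA stop, and they cleaved during both steps. Reverse transcription with template switching preceded Illumina sequencing. Relative activity divides a variant's cleaved/total read fraction by the unmutated ribozyme's. At least 5 reads were required per variant, and three batches were averaged.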
UAUCAGGGGGCCACAGCUGAAGCGUUCACGUCGCAGCCCCUGUCAGAUUCUGGUGAGUCUGCGAACUCUGCUGUAUAUCAC gave a self-cleavage of 0.35.
Work on UAUCAGGGGGCCACAGCAGUAGGGUACACGUCGCAGCCCCUGUCAGAUUCUGGUGAAUCUGCGAAUUCUGCUGUAUAUCUC yielded a self-cleavage of 0.11.
In the case of UAUCAGGGGGCCACAGCAGAGGCGAUCACGUCGCAGCCCCUGUCAGAUCCCGGUGAAUCUGCGAAUUCCGCUGUAUAUCUC, the self-cleavage is reported as 0.07.
Variant UAUCAGGGGGCCACAGCAGAGGCGUCCACGUCGCAGCCCCUGUCAGAUUCAGGUGAAUCUGCGAAUUCUGCUGUAUAUCUC has a self-cleavage of 0.56.
UAUCAGGGGGCCACAGCAGGAGCGUACACGUCGCAGCCCCUGUCAGAUUCUGGUGAAUCUGCGAAUUCCGCUGUAUAUCCC showed a self-cleavage of 0.25.
For UAUCAGGGGGCCACAGCAGAUGCGUUCACGUCGCAGCCCCUGUCAGAUCCUGGAGAAUCUGCGAAUUCUGCUGUAUAUCUC, the self-cleavage was 0.29.
With UAUCAGGGGGCCACAGCAGAUGCGUUCACGUCGCAGCCCCUGUCAGAUUCUGGUGUAUCAGCGAAUUCUGCUGUAUAUCUC the self-cleavage was 0.4.
Work on UAUCAGGGGGCCACAGCAGGAGCGUUCACGUCGCAGCCCCUGUCAGAUUCUGGUGAAUCAGCAAAUUCCGCUGUAUACCUC yielded a self-cleavage of 0.25.
UAUCAGGGGGCCACAGCAGUAGCGCUCACGUCGCAGCCCCAGUCUGAUUCUGAUGAAUCUGCGAACUCUGCUGUAUAUCUC showed a self-cleavage of 0.54.
Variant UAUCAGGGGGCCACAGCUGAAGCGUUCACGUCGCAGCCCCUGUCAGAUUCUGCUGAAUCAGCGGAUUCUGCUGUAUAUCUC has a self-cleavage of 0.41.
UAUCAGGGGGCCACAGCAGAAGCGUUCGCGUCGCAGCCCCUGUCAGGUCCUGGUGAAUCUGCGAAUUCUGCUGUAUAUCUC gave a self-cleavage of 0.11.
Variant UAUCAGGGGGCCACAGCAGUAGCGUUCACGUCGCAGCCCCAGUCAGAUUCUGGUGAAUCUGCGAAUUCUGCUGUAUAUCUC has a self-cleavage of 0.18.
Variant UAUCAGGGGGCCACAGCUGUAGCGUUCACGUCGCGGCCCCUGUCAGAUACUGGCGAAUCUGCGAAUUCUGCUGUAUAUCUC has a self-cleavage of 0.19.
UAUCAGGGGGCCACAGCAGUAGCGUUCACGACGCGGCCCCUGUCAGAUUCUGGUGAAUCUGCGAAUUCUGCUGUAUGUCUC showed a self-cleavage of 0.52.
UAUCAGGGGGCCACAGCAGAGGCGUUCACGUCGCAGCCCCUGUCAGAUUCUGGUGUAUCUGCGGAUUCUGCUGUAUAUCUC showed a self-cleavage of 0.18.
Work on UAUCAGGGGGCCACAGCAGAAGCGUUCGCGACGCAGCCCCUGUCAGAUUCUGGUGAAUCUGCGGAUCCUGCUGUAUACCUC yielded a self-cleavage of 0.05.
UAUCAGGGGGCCACAGCAGAAGCGUUCGCGCCGCAGCCCCCGUCAGAUUCUGGUGGAUAUGCGAAUACUGCUGUAUAUCUC gave a self-cleavage of 0.1.
For UAUCAGGGGGCCACAGCAGAGGCGUUCUCGUCGCAGCCCCUGCCAGAUUCUGGUGAAUCUGCGAAUUCUGCUGUAUAUCUC, the self-cleavage was 0.19.
For UAUCAGGGGGCCACAGCAGGGGCGUUCACCACGCAGCCCCUGUCAGAUUCUGGUGAAUCUGCGAAUCCUGCUGUAUAUCUC, the self-cleavage was 0.37.
Work on UAUCAGGGGGCCACAGCAGAUGUGUUCACGUCGCAGCCCCUGUCAGAUUCUGGUGAAUCUGCGAAUUCUGCUGUAUAUCUC yielded a self-cleavage of 0.34.
In the case of UAUCAGGGGGCCACAGCAGAUGCGUUCACGUCGCAGCCCCUGUCAGAUACUGGUGAAUCUGCGAAUUCUGCUGUAUAUCUC, the self-cleavage is reported as 0.44.
Variant UAUCAGGGGGCCACAGCAGGAGCGUCCGCGUCGCAGCCCCUGUCAGAUCCUGGUGAAUCUGCGAAUUCUGCUGUAUAUCCC has a self-cleavage of 0.51.
With UAUCAGGGGGCCACAGCAGAAGCGUUCCCGUCGCAGCCCCUGUCAGAUUCGGGUGAAUCUGCGAAUUCUGCUGUAUAACUC the self-cleavage was 0.74.
UAUCAGGGGGCCACAGCAGGAGCGUUCACGUCGCAGCCCCAGUCAGAUUCUGGUGAAUCUGCGAACUCUGCUGUAUAUCUC showed a self-cleavage of 0.38.
UAUCAGGGGGCCACAGCUGAAGCGUUCACGUCGCAGCCCCUGUCAGAAUCUGGUGAAUUUGCGAAUUCUGCUGUACAUCUC showed a self-cleavage of 0.04.
With UAUCAGGGGGCCACAGCAGGAGCGUUCACGUCGCAGCCCCUGACAGAUUCUGGUGAAUCUGCGAAUUCUGCUGUAUAUCUC the self-cleavage was 0.77.
With UAUCAGGGGGCCACAGCAGGAGCGUUCACGUCGCAGCCCCUGUCGGAUUCCGGCGAAUCUGCGAACUCUGCUGUAUAUCUC the self-cleavage was 0.63.
UAUCAGGGGGCCACAGCAGAGGCGUUCGCGUCGCAGCCCCUGCCAGAUUCUGGUGAAUCUGCGAACUCUGCUGUAUGUCUC showed a self-cleavage of 0.14.
For UAUCAGGGGGCCACAGCAGAAGCGUUCGCGUCGCAGCCCCUGUCAGAUUCUGGUGAAUCUGCGAAUCCUGCUGUAUAUCUC, the self-cleavage was 0.13.
Variant UAUCAGGGGGCCACAGCAGAUGCGUCCACGUCGCAGCCCCUGACAGACUCUGGUGAAUCUGCGAAUUCUGCUGUAUAUCUC has a self-cleavage of 0.09.
In the case of UAUCAGGGGGCCACAGCUGAAGCGUUCACGUUGCAGCCCCUGUCAGAUUCUGGUGAUUCAGCGAAUUCUGCUGUAUAUCUC, the self-cleavage is reported as 0.3.
In the case of UAUCAGGGGGCCACAGCAGGAGCGUUCACGUCGCAGCCCCUGUCAGGUUCCGGUGAAUCUGCGAUUUCUGCUGUAUAUCUC, the self-cleavage is reported as 0.17.
In the case of UAUCAGGGGGCCACAGCAGACGCGUUCACGUCGCAGCCCCUGUCAGAUUCUAGUGAAUCUGCGAAUUCGGCUGUAUAACUC, the self-cleavage is reported as 0.06.
UAUCAGGGGGCCACAGCAGAGGCGUUCACGUCGCAGCCCCGGUCAGAUUCUGGUGAAUCUGGGAAUUCUGCUGUACAUCUC gave a self-cleavage of 0.16.
In the case of UAUCAGGGGGCCACAGCAGGGGCGUUCUCCUCGCAGCCCCUGUCAGAUUCUGGUGAAUCUGCGAAUCCUGCUGUACAUCUC, the self-cleavage is reported as 0.04.
UAUCAGGGGGCCACAGCAGAGGCGUUCACGUCGCAGCCCUUGUCAGAUUCUGGUGAAUCUGCGAAUUCAGCUGUAUAUCUC gave a self-cleavage of 0.13.
In the case of UAUCAGGGGGCCACAGCAGUAGCGUUCACGUCGCAGCCCCCGUCAGAAUCUGGUGAAUCUGCGAAUUCUGCAGUAUAUCUC, the self-cleavage is reported as 0.08.
With UAUCAGGGGGCCACAGCGGAAGCGUUCACGUCGCAGCCCCUGUCAGAUUCUGGUGAAUCUGCGAAUUCUGCUGUAUAUCAC the self-cleavage was 1.07.
UAUCAGGGGGCCACAGCAGGAGCGUACACGUCGGAGCCCCUGUCAGAUUCUGGUGAAUCUGCGAAUUCAGCCGUAUAUCUC gave a self-cleavage of 0.08.
Variant UAUCAGGGGGCCACAGCUGAAGCGUUCACGCCGCAGCCCCUGUCGGAUUCUGGUGAAUCUGCGAAUUCUGCUGUAUAUCUC has a self-cleavage of 0.1.
Variant UAUCAGGGGGCCACAGCAGUAGCGUUCACGUCGCAGCCCCCGUCAGAUCCUGGUGAAUCUGCGUAUUCUGCUGUAUAUCUC has a self-cleavage of 0.23.
UAUCAGGGGGCCACAGCAGACGCGUUCACGUCGCAGCCCCUGUCAGAUUCUGGUGAAUUUGCGAAUUCAGCUGUAUAUCUC gave a self-cleavage of 0.05.
Variant UAUCAGGGGGCCACAGCAGGAGCGUUCACGCCGCAGCCCCUGUCAGAUUCAGGUGAAUCUGCGAAUUCUGCUGUAUAUCCC has a self-cleavage of 0.34.
UAUCAGGGGGCCACAGCUGAAGCGUACACGACGCAGCCCAUGCCAGAUUCUGGUGAAUCUGCGAAUUCUGCUGUAUAUCUC gave a self-cleavage of 0.08.
Work on UAUCAGGGGGCCACAGCAGAAGCGUUCGCUUCGCAGCCCCCGUCAGAUUCUGGUGAAUCUGCGAAUUCUGCUGUAUAUCUC yielded a self-cleavage of 0.15.
Variant UAUCAGGGGGCCACAGCAGGAGCGUUCACGUCGCAGCCCCUGUCAGGUUCUGGUGAAUCUGCGAAUUCUGCUGUAUAUCUC has a self-cleavage of 0.65.
Variant UAUCAGGGGGCCACAGCAGGAGCGUUCACGUCGCAGCCCCUGUCGGAUUCUAGUGAAUCUGCGAAUUCUGCUGUAUAUCUC has a self-cleavage of 0.93.
Work on UAUCAGGGGGCCACAGCAGGAGCGUACCCGUCGCAGCCCCUGUCAGAUUCAGGUGAAUCUGCGAAUGCUGCUGUAUAUCUC yielded a self-cleavage of 0.07.
In the case of UAUCAGGGGGCCACAGCUGAAGCGUUCACGUCGCAGCCCCUGUCAGAUUCUGGUGAAUCUGCGAAUCCUGCUGUGUAUCUC, the self-cleavage is reported as 0.23.
With UAUCAGGGGGCCACAGCAGGAGCGUUCACGUCGCAGCUCCUGUCAGAUUCUGGUGAAUCUGCGAAUUCUGCUGUAUAUCUC the self-cleavage was 0.14.
UAUCAGGGGGCCACAGCAGAAGCGUUCGCGUCGCGGCCCCUGUCAGAUUCUGGUGAAACUGCGAAUUCAGCUGUAUAUCUC gave a self-cleavage of 0.35.
UAUCAGGGGGCCACAGCAGGGGCGUUCACCUCGCAGCCCCUGUCAGAUUCUGGUGAAUCUGCGAAUCCUGCUGCAUAUCUC showed a self-cleavage of 0.04.
For UAUCAGGGGGCCACAGCAGAAGCGUUCGCGUCGCAGCCCCCGUCAGAUUCUGGUGAAUCCGCGAAUUCUGCUGUAUAUCUC, the self-cleavage was 0.16.
With UAUCAGGGGGCCACAGCUGAAGCGUUCACGUCGCAGCCCCUGGCAGAUUCUGGUGAAUCUGCGAAUUCCGCUGUAUAUCUC the self-cleavage was 0.25.
UAUCAGGGGGCCACAGCAGAAGCGUUCGCGUCGCAGCCCCUGUCAGAUUCUGGUGUAUCUGCGAAUUCUGCAGUAUAUCUC showed a self-cleavage of 0.22.
Work on UAUCAGGGGGCCACAGCAGGUGCGUUCACGUCGCAGCCCCUGUCAGAUUCUGGCGAAUCUGCGAAUUCUGCUGUGUAUCUC yielded a self-cleavage of 0.25.
With UAUCAGGGGGCCACAGCUGAAGCGUUCACGUCGCAGCCCCUGUCAGAUUCUGGUGAAUCUGCGAAUCCUGCAGUAUAUCUC the self-cleavage was 0.14.
UAUCAGGGGGCCACAGCAGGAGCGUUCACGUCGCAGCCCCUGUCAGAUUCCGGUGAAUCUGCGAAUUCUGCUGUAUAUCUC showed a self-cleavage of 0.83.
With UAUCAGGGGGCCACAGCAGAGGCGUUCACGUCGCAGACCCUGUCAGAUUCUGGUGAAUCUGCGAAUUCUGCUGUAUAUCUC the self-cleavage was 0.12.
UAUCAGGGGGCCACAGCAGAAGCGUUCCCGUCGCAGCCCCAGUCAGGCUCGGGUGAAUCUGCGAAUUCUGCUGUAUAUCUC showed a self-cleavage of 0.33.
Variant UAUCAGGGGGCCACAGCAGGAGCGUUCACGUCGCAGCCCCCGUCAGAUUCUGGUGAAUCUGCGAAUUCUGCUGUAUAUCUC has a self-cleavage of 1.28.
In the case of UAUCAGGGGGCCACAGCAGGAGCGUUCACGUCACAGCCCCUGUCAGAAUCUGGCGAAUCUGCGAUUUCUGCUGUAUAUCUC, the self-cleavage is reported as 0.08.
UAUCAGGGGGCCACAGCAGGAGCGUUCACGUCGCAGCCCCUGUCAGAUUCUGGUGAAUCUGCGAAUUCUGCAGUAUACCUC gave a self-cleavage of 1.05.
In the case of UAUCAGGGGGCCACAGCAGGAGCGUUCUUGUCGCAGCCCCUGUCAGAUUCUGGUGAAUCUGCGAAUUCUGCUGUAUAUCUC, the self-cleavage is reported as 0.58.
UAUCAGGGGGCCACAGCAGAAGCGUUCGCGACGCAGCCCUUGUCAGAUUCUGGUGAAUCUGCGAAUUCUGCCGUAUAUCUC showed a self-cleavage of 0.2.
Variant UAUCAGGGGGCCACAGCAGAGGCGUUCACGUGGCGGCCCCUGUCAGAUUCUGGUGAAUCUGCGAAUUCUGCUGUAUAUCUC has a self-cleavage of 0.11.
UAUCAGGGGGCCACAGCAGAAGCGUUCGCGUCGCAGCCCCUGUCAGGUUCUGGCGAAUCUGCGAAUUCUGCUGUUUAACUC showed a self-cleavage of 0.27.
UAUCAGGGGGCCACAGCAGAGGCGUUCACGUCGCAGCCCCUGUCAGAUUCUGGCGAAUCUGCGAAUUCUGCUGUAUAUCUC showed a self-cleavage of 0.93.
